Among all 420,000 compounds or so, about 50,000 (12%) were called active. Inconclusive results (about 26%) are left out. Calls come from the whole dose curve; as a rule, active = well fitted inhibition curve with a large enough effect; inconclusive = small, poorly fitted or top-dose-only effect; inactive = flat fitted curve, though single readings scatter. The entries are a selection whose mix differs from that of the whole data set. More than one record can exist for a structure, and the calls need not agree.
Experiment: qHTS for Inhibitors of human tyrosyl-DNA phosphodiesterase 1 (TDP1): qHTS in cells in presence of CPT; note: nearly all actives have a fitted effect of over 55% in size
Settings: chicken DT40 Tdp1-/-;hTDP1 cells + 20 nM CPT, ATP luminescence, 48 h; series mostly up to 46.2 µM; activity change, negative = growth inhibition: at the top concentration
How it was run: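 Cell growth measured by CellTiter-Glo luminescence after a minimum 48 h, 37 C compound exposure with 20 nM CPT in Tdp1-knockout DT40 cells stably expressing hTDP1, seeded 400/well; qHTS titration format.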
% is set by controls: 0 for no effect and ±100 for the full control effect; potency is the fitted concentration of half-maximal effect.

Row | Structure (SMILES) | Potency | activity change, negative = growth inhibition
1 | O=C(COc1ccccc1-c1ccccc1)N/N=C/c1ccc2ccccc2c1 | active: 1.16 µM | –
2 | O=C(c1cc(-c2ccc(F)cc2)on1)N1CCN(c2ccc(F)cc2)CC1 | – | inactive: 3.72%
3 | CC(=O)OCC1=C(C(=O)O)N2C(=O)C(NC(=O)Cc3ccccc3)C2SC1 (stereo not drawn) | – | inactive: -4.8%
4 | CCC1CN(C(=O)N2CCC(C(=O)NCc3ccccc3OC)CC2)c2cc(C)ccc2O1 (stereo not drawn) | active: 16.4 µM | –
5 | CC(=NNC(=S)N1CC2CCC(CC2)C1)c1cccc(C)n1 | active: 0.0103 µM | –
6 | c1ccc(-c2onc(-c3ccco3)c2-c2ccc3c(c2)OCO3)cc1 | – | inactive: -25.9%
7 | Cc1cc(OCC(O)CN2CCN(C)CC2)ccc1C(C)C (stereo not drawn) | – | inactive: -17.3%
8 | O=C(Nc1ccc(S(=O)(=O)N2CCCCC2)cc1)c1ccc(CN2CCc3ccccc3C2)cc1 | active: 10.3 µM | –
9 | O=C(O)CCC1(CCC(=O)O)c2ccccc2-c2ccccc21 | – | inactive: 55.5%
10 | CCOc1ccc2nc(Cl)sc2c1 | – | inactive: 39.4%
11 | C=C[C@@]1(C)CC(=O)[C@@]2(O)[C@@]3(C)[C@@H](O)CCC(C)(C)[C@@H]3[C@H](O)[C@H](OC(C)=O)[C@@]2(C)O1 | – | inactive: 3.8%
12 | COc1ccc(C(=O)Nc2ccc(Cl)cn2)cc1S(=O)(=O)N1CCCC1 | – | inactive: -7.38%
13 | COc1ccc2c(=O)c(-c3ccccc3)coc2c1 | – | inactive: -23%
14 | CC(C)C[C@@H](CN=[N+]=[N-])N1CCN(CC(C)C)CCC1=O | – | inactive: -23.6%
15 | COc1ccc(CNC(=O)[C@@H]2CC=C[C@@H]3CCN(C4CCCCC4)C(=O)[C@@H]32)cc1 | – | inactive: -23.2%
16 | Cc1cccc(CSc2cn(CC(=O)N3CCOCC3)c3ccccc23)c1 | – | inactive: -14.5%
17 | COc1ccc(C(=O)c2ccccc2O)c(O)c1 | inactive | –
18 | CC1CC(C)CN(C(=O)C2CCN(S(=O)(=O)c3ccc4c(c3)CC(C)N4C(=O)C3CC3)CC2)C1 (stereo not drawn) | active: 16.4 µM | –
19 | COCCc1ccc(OCC(O)CNC(C)C)cc1 (stereo not drawn) | inactive | –
20 | Cc1cc(C)cc(NC(=O)Cn2nnc(C(=O)NCc3ccccc3Cl)c2N)c1 | – | inactive: -22.1%
21 | NC(=O)COC(=O)c1cccc2c1-c1ccccc1C2=O | – | inactive: 13.2%
22 | O=C(OCCN1CCOCC1)c1cccc(F)c1 | – | inactive: -0.964%
23 | N#C/C(=C/c1ccc(Br)s1)C(=O)NCCc1c[nH]c2ccccc12 | active: 23.1 µM | –
24 | O=C1CCC(C(=O)O)N1 (stereo not drawn) | – | inactive: 1.38%
25 | Cc1ccc(NC(=O)c2ccc(=O)n(CC(=O)Nc3c(C)cc(C)cc3C)n2)cc1 | – | inactive: -2.48%
26 | O=C(OCc1cn([C@@H]2C[C@H](c3ccccc3)N(Cc3cccs3)C[C@H]2O)nn1)c1ccccc1 | – | inactive: -11.9%
27 | CC(C)(C)CC(C)(C)N=C1Nc2ccccc2NC12C[C@H]1CCC(=O)N3CC[C@@H](C2)[C@@H]13 (stereo partly drawn) | – | inactive: -2.37%
28 | C[C@@H]1CN([C@H](C)CO)C(=O)CCCn2nncc2CO[C@@H]1CN(C)C(=O)Nc1ccc(N2CCN(C)CC2)cc1 | – | inactive: -24.5%

— PubChem BioAssay AID686979 (National Center for Advancing Translational Sciences (NCATS), 2013)
